These results are taken from patent US20210101998A1.

The target in the test is endogenous TFPI in human plasma (human), P10646. The test can be described thus: cell-based or functional assay.

B1: TFPI-26 (antibody, human IgG1, lambda)
light: QSVLTQPPSLSGAPGQRVTISCTGSSSNLGADYDVQWYQQLPGTAPKLLIFGNNNRPSGVPDRFSGSRSGTSASLAITGLQAEDEANYYCQSYDRSLSGSMVFGGGTKLTVLGQPKAAPSVTLFPPSSEELQANKATLVCLISDFYPGAVTVAWKADSSPVKAGVETTTPSKQSNNKYAASSYLSLTPEQWKSHRSYSCQVTHEGSTVEKTVAPTECS
heavy: [omitted - about 100 residues]NGAAAAWDYWGQGTLVTVSSASTKGPSVFPLAPSSKSTSGGTAALGCLVKDYFPEPVTVSWNSGALTSGVHTFPAVLQSSGLYSLSSVVTVPSSSLGTQTYICNVNHKPSNTKVDKKVEPKSCDKTHTCPPCPAPEAAGAPSVFLFPPKPKDTLMISRTPEVTCVVVDVSHEDPEVKFNWYVDGVEVHNAKTKPREEQYNSTYRVVSVLTVLHQDWLNGKEYKCKVSNKALPAPIEKTISKAKGQPREPQVYTLPPSREEMTKNQVSLTCLVKGFYPSDIAVEWESNGQPENNYKTTPPVLDSDGSFFLYSKLTVDKSRWQQGNVFSCSVMHEALHNHYTQKSLSLSPG
B1 had a TGA Velocity Index at 20 nM of 18.6.

B2: hz4F36 (antibody, human IgG4 S228P, kappa)
light: DIVMTQTPLSLSVTPGQPASISCKSSQSLLESDGKTYLNWYLQKPGQSPQLLIYLVSILDSGVPDRFSGSGSGTDFTLKISRVEAEDVGVYYCLQATHFPQTFGGGTKVEIKRTVAAPSVFIFPPSDEQLKSGTASVVCLLNNFYPREAKVQWKVDNALQSGNSQESVTEQDSKDSTYSLSSTLTLSKADYEKHKVYACEVTHQGLSSPVTKSFNRGEC
heavy: EVQLVESGGGLVKPGGSLRLSCAASGFTFSNYAMSWVRQTPEKRLEWVATISRSGSYSYFPDSVQGRFTISRDNAKNSLYLQMNSLRAEDTAVYYCARLGGYDEGDAMDSWGQGTTVTVSSASTKGPSVFPLAPCSRSTSESTAALGCLVKDYFPEPVTVSWNSGALTSGVHTFPAVLQSSGLYSLSSVVTVPSSSLGTKTYTCNVDHKPSNTKVDKRV[omitted - human IgG4 Fc with S228P (EU numbers)]
Regarding B2, the Dilute PT EC50 amounted to 0.44 nM, the TGA Velocity EC50 turned out to be 1.7 nM and the dilute prothrombin time EC50 amounted to 0.44 nM.
